Results: publication PMC4336329 (PLoS ONE, 2015)
In all, about 310,000 compounds went through this assay and about 2,200 (0.71%) showed an effect of 50% or more. Effects have a minus sign here. The list shows a part of the results.

Molecular target: human ether-à-go-go-related gene (hERG) potassium channel (human, UniProt Q12809)
Assay: primary screen, population patch clamp on CHO cells stably expressing hERG

human ether-à-go-go-related gene (hERG) potassium channel, sequence (Q12809 whole entry, looked up): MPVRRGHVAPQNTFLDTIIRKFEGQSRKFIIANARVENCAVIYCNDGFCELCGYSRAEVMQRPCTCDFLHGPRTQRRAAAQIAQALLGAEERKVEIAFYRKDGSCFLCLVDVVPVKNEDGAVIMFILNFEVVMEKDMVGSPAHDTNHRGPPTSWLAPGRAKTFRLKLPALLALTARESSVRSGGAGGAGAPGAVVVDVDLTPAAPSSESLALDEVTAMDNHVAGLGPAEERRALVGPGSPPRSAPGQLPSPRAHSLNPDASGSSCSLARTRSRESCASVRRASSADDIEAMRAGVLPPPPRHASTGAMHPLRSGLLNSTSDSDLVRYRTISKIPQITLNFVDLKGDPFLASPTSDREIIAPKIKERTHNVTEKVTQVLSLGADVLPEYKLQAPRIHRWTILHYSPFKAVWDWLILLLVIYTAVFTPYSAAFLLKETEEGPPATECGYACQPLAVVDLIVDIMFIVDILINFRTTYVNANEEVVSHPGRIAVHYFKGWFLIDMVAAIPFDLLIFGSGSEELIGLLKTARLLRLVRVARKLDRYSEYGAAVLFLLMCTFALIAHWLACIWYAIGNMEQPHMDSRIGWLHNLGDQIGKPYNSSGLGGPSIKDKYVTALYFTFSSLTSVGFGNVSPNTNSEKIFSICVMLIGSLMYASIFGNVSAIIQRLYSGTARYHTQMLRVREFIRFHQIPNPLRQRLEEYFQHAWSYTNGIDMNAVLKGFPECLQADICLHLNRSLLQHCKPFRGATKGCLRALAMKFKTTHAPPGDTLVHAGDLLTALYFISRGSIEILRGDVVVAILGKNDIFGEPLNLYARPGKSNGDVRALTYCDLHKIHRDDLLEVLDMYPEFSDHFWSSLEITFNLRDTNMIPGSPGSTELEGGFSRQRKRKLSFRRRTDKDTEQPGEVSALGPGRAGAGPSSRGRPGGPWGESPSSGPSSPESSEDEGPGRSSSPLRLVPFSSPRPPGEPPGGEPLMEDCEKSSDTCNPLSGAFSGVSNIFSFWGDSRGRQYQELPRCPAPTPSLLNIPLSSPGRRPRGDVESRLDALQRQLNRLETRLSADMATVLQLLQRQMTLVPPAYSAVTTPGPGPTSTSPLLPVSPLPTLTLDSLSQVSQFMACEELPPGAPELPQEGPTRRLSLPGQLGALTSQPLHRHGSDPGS

Structure (SMILES) | hERG current change (%, negative = inhibition) at 1uM
CCC(C(=O)Nc1cccc(OC)c1)n1nc(C)c2c(C)n(-c3ccccc3)nc2c1=O (stereo not drawn) | 4.27%
CCOC(=O)c1c(-c2ccc(C)o2)csc1NC(=O)CN1CCOCC1 | 9.27%
Oc1ccc(Br)cc1-c1n[nH]c(=S)n1Cc1ccccc1 | 12.4%
Cc1cc(Cl)nc(SCC(=O)c2ccccc2)n1 | 8.88%
COc1ccc(CNC(=O)c2ccc(Cl)c(S(=O)(=O)N3CCOCC3)c2)cc1OC | 10.3%
COc1ccc(CNCc2ccc(C(F)(F)F)cc2)cc1OC.O=C(O)C(=O)O | 16.8%
CC(=O)c1cc(C#N)c(Oc2ccc(Cl)cc2Cl)nc1C | 9.38%
CCn1nc(NC(=O)c2ccccn2)c2cc3cc(C)ccc3nc21 | 8.82%
CCOC(=O)c1c(C)c2c(n1C)CCC/C2=N\O | 11.8%
CCc1c(C)nc(N2CCN(Cc3ccccc3)CC2)[nH]c1=O | 16.4%
CC1(C)Oc2ccc3ccc(=O)oc3c2/C(=C/NCCO)C1=O | 7.93%
CCOC(=O)N1CCN(C(=O)CCSc2ccccc2)CC1 | -11.2%
Cc1ccc(C(=O)O/N=C(\N)c2ccc(Br)cc2)cc1C | 18%
CCOc1ccc(CCNC(=O)COC(=O)c2cccc(S(=O)(=O)N3CCOCC3)c2)cc1OCC | 6.25%
COc1ccccc1NC(=O)C(C)OC(=O)c1cc2ccccc2[nH]1 (stereo not drawn) | 2.39%
COCC1CCN(C(=O)c2cc(COc3ccccc3SC)on2)C1 (stereo not drawn) | -7.27%
CCOc1ccc(CCNC(=O)C2CCN(S(=O)(=O)c3ccc(C)cc3)CC2)cc1OCC | 3.52%
CC(C)C(C)NC(=O)CSc1nnc(-c2c[nH]c3ccccc23)o1 (stereo not drawn) | 4.32%
CC(=O)c1c(C)[nH]c(C(=O)COC(=O)c2cc(C)oc2C)c1C | 2.54%
CCOc1ccc(NC(=NCc2ccc3c(c2)OCO3)SC2CC(=O)N(c3ccccc3)C2=O)cc1 (stereo not drawn) | 8.55%
O=C(C1CCCN1S(=O)(=O)c1cccc2nsnc12)N1CCN(c2ccccc2)CC1 (stereo not drawn) | -1.72%
C[C@@H]1NC(=O)[C@@]2(C)[C@@H](c3ccccc3)[C@H]3COc4ccccc4[C@@H]3N2C1=O | 9.53%
O=C(NNC(=O)c1cccnc1SCc1cccc([N+](=O)[O-])c1)c1ccccn1 | 17.3%

Structure (SMILES) | hERG current change (%, negative = inhibition) at 1uM
CC(C)Oc1ccc(C(=O)NCC(=O)O)cc1 | 5.71%
Cc1cc(CNC(=O)C2CCC(=O)N(CCc3cccc(F)c3)C2)on1 (stereo not drawn) | 15.4%
CNS(=O)(=O)c1cc(OCC(N)=O)c(C)cc1Cl | 14.3%
O=C(NCC(=O)N1CCCC(C(F)(F)F)C1)c1ccco1 (stereo not drawn) | 11.9%
COc1ccc(C)cc1NC(=O)CN(C)S(=O)(=O)c1cc(C)ccc1OC | -2.6%
COc1ccc(OC)c(/C=N\Nc2nccs2)c1 | 8.6%
CCN(C(=O)CSc1nnc2ccccn12)C1CCS(=O)(=O)C1 (stereo not drawn) | 16.9%
CCCCNC(=O)CCn1nc(-c2ccc(Cl)cc2)c2ccccc2c1=O | -1.12%
Cc1cccc(N2CCN(c3cc(C)nc4nnnn34)CC2C)c1 (stereo not drawn) | 1.26%
CCc1ccc(CN2CCCC(CNC(=O)c3cc(OC)cc(OC)c3)C2)cc1 (stereo not drawn) | -31.6%
COc1ccc(C(=O)NC(C)c2ccc(-n3ccnc3)cc2)cc1[N+](=O)[O-] (stereo not drawn) | -40.1%
COc1ccc(-c2cc3nc(C)cc(NCCO)n3n2)cc1 | -5.46%
Cl.Nc1csnc1C(=O)O | -6.84%
CCOC(=O)Cn1c(=NC(=O)C(C)(C)C)sc2cc([N+](=O)[O-])ccc21 | 10.4%
Cc1cccc(C)c1Nc1ncnc(N)c1[N+](=O)[O-] | 15.5%
CC(=O)Nc1ccc(SCC(=O)Nc2sccc2C#N)cc1 | 17.1%
Cc1cc(=O)n2nc(N3CCCC(C(=O)NCCc4ccc(Cl)cc4)C3)sc2n1 (stereo not drawn) | 1.6%
CC1=NOC(=O)/C1=C\c1ccc(-c2ccc(Br)cc2C(=O)O)o1 | 18.2%
CCCCn1c(N)c(N(CCC(C)C)C(=O)C2CC(=O)N(c3cccc(SC)c3)C2)c(=O)[nH]c1=O (stereo not drawn) | 5.59%
CCCCn1cnc2c1c(=O)n(C)c(=O)n2C | 8.06%
COC(=O)c1ccccc1N(Cc1ccccc1)S(C)(=O)=O | 12.4%
COc1ccc(-n2c(CSc3nc(C)cc(C)n3)nnc2SCC(=O)Nc2nccs2)cc1 | 6.62%
